From the domain aggregation screens of Martell et al. (2025)

Test: soluble fraction after stress (log2 fold change); higher = more stays soluble; pooled small domains, quantitative proteomics
Conditions: stress: 75 degC
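Note: 20 min heating vs room temperature control held 20 min.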

Sequence	soluble fraction (log2)
HMKVDQVDDAELLDLVEMEIRELLSSYDFPGDDVPIVKGSALAAVEDRDEAIGKNSIIELMSKVDEYIPAP	0.161
HMAKGTVKWFNETKGYGFIAPEGGKKDVFVHITALERAGLRGLKDGQAVNFDIEAGRDGRESAINITL	-0.529
HMSASHYDVLNLKKTASETEIKKAYRKLAVEYHPDKVMNLGEEYQKAAKEKFQKVQEAYEQIKLERGI	0.0712
HMQPVNIEPRSPLHAQVLLDRANFSPGQIDGEVGSNQRRAVSGLQAARGLKVTGELDEETWQALQAD	0.0246
HMVDDEELLDLVEMEVRELLDDYEFPGDDTPIIRGSALMALEDPAGPWGDKIVELFEAVDSYIP	0.18
HMAMINTVQPILVEGLSKKNNDTLFGRTENNRVVNFEGSRSLIGNFVNIKITEALSNSLRGIIQS	-0.171
HMYDTKLTTQDAADYLGISRPTLEKLLEQGDIPFTRVGRHRRVMLSDLQHYAVTQHDKNMQIFDAIAA	-0.0563
HMDEEMLELVEMEMRELLSFYDFDGDNTPIIRGSALGALNGVPQWEDKVMELMDAVDTWIPLP	-0.403
HMGMVGTNHRILVDGVSRKNAGHLSGRTENNRVVNFAAGEASIGDFRDVRITEALPNSLRAEVLG	-0.114
